The values that follow come from PMC6451091.

This is one part of the list. Measured with an extract: partners may take part in the binding.

This assay relates to PU.1 (endogenous, THP-1 nuclear extract) + IRF8 (endogenous, THP-1 nuclear extract). Kind of assay: nuclear extract protein-binding microarray (nextPBM). To be noted: 20 mM HEPES pH 7.9, 100 mM NaCl, 1 mM DTT, 0.2 mg/mL BSA, 0.02% Triton X-100, 2% milk, 0.4 mg/mL salmon testes DNA; 1 h; temperature not stated; high values mean tight binding; double strand, one strand shown; sequences stand for … in GCCTAGCAC…GTGCTAGGTCTTGATTCGCTTGACGCTGCTG
Turning to TGGCACAGGAAGTGAAACTA, the binding signal is 61 z-score.

For the sequence TGAAACAGCAAGTGAAACCA, the binding signal worked out at 18.5 z-score.

In the case of CTGCAAAGGAAGTGAAACTC, the binding signal was determined as 28.1 z-score.

With TTTAAAGGGAAATGAAAGTC, the binding signal was found to be 3.25 z-score.

With AAAAGGAGGAACTGAAACCA, the binding signal was determined as 51.3 z-score.

On to GAAAGGAGGAAGTGAAACTG, for which the binding signal stood at 78.8 z-score.

For TGAAACAGGAAGGGAAACCA, the binding signal is 3.04 z-score.

Take TCCTGGAGGAAGTGAAACTG: the binding signal stood at 54.4 z-score.

As to AAGGATGGGAAGTGAAAGTG, the binding signal is 16.5 z-score.

For TGAGAAGAGAAGTGAAACCT, the binding signal was 19.9 z-score.

For TGAAACAGGCAGTGAAACCA, the binding signal amounted to 9.74 z-score.

As for AAAAAAAGGAAATGCAAGTA, the binding signal is -0.516 z-score.

As for TGGCAGAGGAAGTGAAAGTA, the binding signal is 28.7 z-score.

TAAAGGAGGAACTGAAAGCA: the binding signal is 6.55 z-score.

Consider TAAAGGAGGAACTCAAACCA, for which the binding signal stood at 1.19 z-score.

Take AAAAAGAGGAACTGAAACTA: the binding signal was determined as 71.9 z-score.

Regarding AAAAAAAGGAAGTGAAAGTA, the binding signal worked out at 51.4 z-score.

In the case of GATGAGAGGAACTGAAAGCT, the binding signal was 1.77 z-score.

As for AAAAAAAGGAAATGAAACTT, the binding signal amounted to 28.7 z-score.

As to TTGGTCAGGAAGTGAAACTG, the binding signal amounted to 44.6 z-score.

Take GGCTGGCAGAAGTGAAACTC: the binding signal was found to be 29.7 z-score.

In the case of CTGGCACGGAACTGAAACTC, the binding signal is 11.2 z-score.

Consider AAAAAAGAGAAGTGAAACTA, for which the binding signal came out at 72.3 z-score.

On to TGGCAGAGGAAGTGAAACTG, for which the binding signal came out at 55.5 z-score.

Turning to GAGGAGAGGAAGTGAAACTT, the binding signal turned out to be 47.6 z-score.

As to ATTAAGGGGAAGTGAAACAT, the binding signal is 11.4 z-score.

For the sequence TAAAGGAGGAACTGAAACAA, the binding signal was 9.8 z-score.

Turning to CTTTAGAGGAACTGAAACTC, the binding signal was found to be 25.8 z-score.

In the case of TGAAACAGGTAGTGAAACCA, the binding signal was 24.7 z-score.

As for TGGCAGAGGAAGTGAAACTA, the binding signal stood at 57.7 z-score.

Take CTGGCAGGGAACTCAAACTC: the binding signal is -0.316 z-score.

Regarding GAAAATGGGAAGTGAAACTA, the binding signal amounted to 78.4 z-score.

Take TGAGAGGGGAAGTGAAACCT: the binding signal is 50.7 z-score.

As to CTGCCAGAGAAGTGAAAGCA, the binding signal amounted to 4.68 z-score.

As for TGAGAGGAGTAGTGAAACCT, the binding signal came to 10.2 z-score.

CTGGCAGGTAACTGAAACTC: the binding signal is 4.78 z-score.

Turning to TGAGAGGAGAATTGAAACCT, the binding signal is 3.54 z-score.

On to GAAAAGGGGAACTGAAACTA, for which the binding signal is 67.3 z-score.

Turning to CTGCCAGGGAAGGGAAAGCA, the binding signal is -0.423 z-score.

Turning to TGAGAGGAGAAGTGAAACAT, the binding signal was determined as 3.98 z-score.
